Measured values as given in article PMC6212790.
Some of the results follow. At the low end of the ranking, values are background and their order means little.

target: T1, GST-Rok-C97-191 (UniProt O34857); test: protein binding microarray; conditions: Rok is a gene silencer of Bacillus subtilis; high values mean tight binding; most listed sequences are background and not binding sites; double strand, one strand shown;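 further: rank score from −0.5 (least bound) to 0.5 (best bound)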
T1 sequence: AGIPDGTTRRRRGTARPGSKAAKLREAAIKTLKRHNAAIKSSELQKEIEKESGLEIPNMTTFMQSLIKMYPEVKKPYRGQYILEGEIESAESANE

Row | Sequence | binding signal [E-score]
1 | CGTCGCAC | -0.148
2 | ATACGCAA | 0.228
3 | CTTCGACC | -0.246
4 | AAAATGAT | 0.0611
5 | ATCATGAG | -0.0972
6 | GGCTCGAA | -0.137
7 | GACACCAA | -0.0487
8 | CATCTGGC | -0.228
9 | ACACTCAG | -0.053
10 | AATGAGTG | -0.13
11 | CACCGAAC | -0.185
12 | CGTGACGC | 0.0151
13 | AGGGTATC | -0.118
14 | ATGAGCGG | -0.147
15 | CCTCCTAC | -0.0349
16 | CTATCACC | 0.0898
17 | CCTATACC | 0.137
18 | GAAGAAGC | -0.243
19 | ACTGTCGA | -0.0442
20 | GGCCTAAC | -0.273
21 | CATGGGGG | -0.272
22 | AAGGCTCA | -0.276
23 | CACCAGAG | -0.11
24 | ACGGGTCT | -0.0539
25 | AACCTAGA | 0.13

Row | Sequence | binding signal [E-score]
26 | ACAATGCT | -0.0792
27 | ATTTAGGC | 0.00897
28 | AGTTGAAC | -0.0218
29 | GCACTCGC | -0.271
30 | CCTTAATC | -0.172
31 | CGAAATGA | -0.0888
32 | ATAACGTG | 0.146
33 | ATTATATG | 0.223
34 | AACGAACA | 0.0175
35 | ATACCAAA | 0.0654
36 | TACGTGCA | 0.075
37 | AATGAATG | -0.0115
38 | CTTCGCCA | 0.00426
39 | TGCTAACA | 0.0788
40 | ATGTGCTG | -0.0931
41 | CCCCGTGA | -0.191
42 | GGGACCAC | -0.385
43 | AGTTGTTG | 0.11
44 | CGGGCGAA | -0.24
45 | CACTGCGC | -0.194
46 | GGAAGGCA | -0.25
47 | GGAATGTA | 0.168
48 | CATCGGCG | 0.0323
49 | AAATTAGG | 0.195
50 | ATCGTACC | -0.134

Row | Sequence | binding signal [E-score]
51 | AACGTAAC | 0.0345
52 | AAGAGTGA | 0.0515
53 | CACGAGGG | -0.351
54 | ATTTTGTG | 0.142
55 | GATCGGGA | -0.0531
56 | CCGGGCCC | -0.431
57 | CAGGAACC | -0.163
58 | ATCAGGTA | 0.0822
59 | GGTCGGCA | -0.251
60 | AATTCCCT | -0.0518
61 | AACGTGGG | -0.144
62 | CAACAGTA | 0.315
63 | ACATCTCT | -0.0589
64 | TCCTGCCA | 0.0796
65 | ACTGCCTA | -0.0171
66 | CTGATTCA | -0.0414
67 | CGCGGGCC | -0.276
68 | ACCGTGCT | 0.0327
69 | AGGCAGAA | -0.163
70 | AATCCTAT | 0.273
71 | GAACCACA | -0.133
72 | ACAGAGCC | -0.173
73 | CACCGCAA | -0.114
74 | GCGCGGCC | -0.402
75 | GAGGTGTA | 0.0774

Row | Sequence | binding signal [E-score]
76 | GGTGTGAC | -0.139
77 | GTTTTCCA | -0.181
78 | AGGCAACG | -0.0481
79 | CCGCAAGC | -0.233
80 | CCATCTGA | 0.0365
81 | TAGGCGAA | 0.0738
82 | CCCACACA | -0.0699
83 | ACGTATGA | 0.00348
84 | AATGGAGA | 0.0615
85 | CAAAGATC | -0.0941
86 | ACCTCGCG | -0.201
87 | CACCCTTC | -0.147
88 | TAAACCCA | -0.011
89 | GTCCTTCA | -0.00306
90 | ATAAGCAA | 0.144
91 | CTAAGGAA | -0.0634
92 | AAGCCGTG | -0.207
93 | CCTAGGAG | -0.0449
94 | AGAGGGCC | -0.23
95 | CAATGAAA | -0.098
96 | AATACTTC | 0.214
97 | GCTGGGAA | -0.128
98 | CTAATCGC | 0.142
99 | GCTCAGCC | -0.0561
100 | AATATGAC | 0.16

Row | Sequence | binding signal [E-score]
101 | AAAAAAAG | 0.0553
102 | CTCTGGAC | -0.117
103 | ACGTACTA | 0.186
104 | CCATTCAA | -0.121
105 | ACAATACG | 0.0553
106 | ATCATTCG | 0.0549
107 | CATCGATA | 0.259
108 | GACGCGCC | -0.319
109 | GGACCACC | -0.364
110 | ACGAGGCT | -0.137
111 | TCGGCCAA | -0.0806
112 | GTCATTTA | 0.0352
113 | CCTTTACG | -0.0108
114 | CGTAATAA | 0.323
115 | GAATAGAC | 0.0737
116 | AGCCGCCG | -0.359
117 | GATTGTTA | 0.183
118 | AAGCAATG | -0.116
119 | AAATATGG | 0.279
120 | CGTCCGGC | -0.185
121 | CCGCGTTC | -0.185
122 | GTTTAGTA | 0.31
123 | CCAGAACA | -0.0486
124 | GCCCAGCC | -0.439
125 | GAGTGAGC | -0.144

Row | Sequence | binding signal [E-score]
126 | CCCGTTAC | 0.064
127 | AGGCCTCG | -0.183
128 | AGCTCCAA | -0.0742
129 | CAAGCGGA | -0.104
130 | GAATCTGA | -0.144
131 | AATGTTTC | 0.106
132 | AAGCGCGG | -0.107
133 | ATGATGTG | 0.0328
134 | ATGAATGG | 0.00148
135 | GAACCATC | 0.0782
136 | CTATATAA | 0.359
137 | TCTGAAGA | -0.123
138 | CGTTTCCC | -0.21
139 | GCTTCTCC | -0.242
140 | GGTATCAC | 0.233
141 | GTCGTAGA | 0.159
142 | CCGTGGCC | -0.238
143 | GCGCATAC | 0.0738
144 | CCTCTACG | -0.128
145 | TCCCAGAA | -0.0625
146 | AGACAAAA | -0.146
147 | CACCCAAA | -0.0429
148 | ACATAGCC | -0.0062
149 | TACGGCCA | -0.0766
150 | ACAGACAG | 0.0147

Row | Sequence | binding signal [E-score]
151 | ATTATAAG | 0.316
152 | CAAATACC | 0.114
153 | AAGTCCAT | 0.18
154 | CCCAACTC | -0.194
155 | CAGGTTAA | -0.0938
156 | GCTCGAAC | -0.0938
157 | AACTGATG | 0.0551
158 | GCTATGCC | -0.172
159 | CGTCCTAA | 0.0235
160 | ACTACGCA | -0.0187
161 | GCGGAACC | -0.319
162 | AGCGCTCG | -0.215
163 | AAGACCCC | -0.237
164 | AGTACACA | 0.184
165 | ACAAGAAG | -0.0588
166 | GGTAGCAC | 0.16
167 | AACGCGTC | -0.195
168 | AGCCCCTA | -0.272
169 | CCCTGAGA | -0.189
170 | ACTTGTTA | 0.282
171 | CCACGCTC | -0.0229
172 | AAGACAAT | 0.00827
173 | TATGTACA | 0.345
174 | AGGAATGA | 0.0981
175 | AGGAAATA | 0.13

Row | Sequence | binding signal [E-score]
176 | GCTCGAAA | -0.112
177 | GTAGACAC | -0.14
178 | ATCCTACC | 0.239
179 | ATTCCGGC | 0.0407
180 | AGCCCACT | -0.142
181 | GACAGTAC | 0.0206
182 | AAGGGAGA | -0.31
183 | ACTGCGTG | -0.0696
184 | GGCGACTA | -0.103
185 | CCATCGGA | -0.129
186 | CGTCTGAC | -0.183
187 | AGTTTAAG | 0.0599
188 | CATTGAGC | -0.106
189 | AGATCTGG | -0.0775
190 | AATCGAGC | 0.0653
191 | GCCGCAGA | -0.176
192 | ACCGGCCG | -0.0923
193 | AGGGAACG | 0.00378
194 | ATCGACAG | -0.0645
195 | GCTCCCAC | -0.202
196 | CAAGAGCA | -0.103
197 | AAGAAATT | 0.138
198 | AAAGAGCC | -0.305
199 | AATCCGGT | 0.0902
200 | CATTTGCA | 0.157

Row | Sequence | binding signal [E-score]
201 | GTAAGAAC | -0.0908
202 | CCCCCGGC | -0.239
203 | GTCTCCGA | -0.117
204 | ATCCCCAT | -0.0823
205 | CCCGCAGG | -0.297
206 | CGACCCGA | -0.199
207 | AGTTGCAG | -0.0262
208 | CCGCATAA | -0.0629
209 | AGCGAGGC | -0.25
210 | AGATTTAA | 0.119
211 | AGGTCCAT | 0.0797
212 | CGCTGATC | -0.0449
213 | CTAGTGAA | 0.171
214 | CCGCATCG | -0.195
215 | ACTAGGCT | -0.0671
216 | CCCCGCAC | -0.35
217 | ATATTATA | 0.379
218 | ACGAGACA | 0.131
219 | GCTGGCGA | -0.195
